Assay results as given in patent CN115707716A (DANSHENG MEDICAL TECH SHANGHAI CO LTD, dated 2023).

T1: VEGF-A165 (UniProt P15692-4 27-191)
T1 construct: Isoform VEGF-A165; also called VEGF蛋白
T1 sequence (looked up): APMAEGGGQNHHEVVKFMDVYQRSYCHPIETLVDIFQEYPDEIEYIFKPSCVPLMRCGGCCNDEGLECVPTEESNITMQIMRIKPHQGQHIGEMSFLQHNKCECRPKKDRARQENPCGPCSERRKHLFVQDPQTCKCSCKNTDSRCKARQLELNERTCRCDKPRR

B1: 抗TGF-β/VEGF双功能融合蛋白TV01 (other)
heavy: QVQLVQSGAEVKKPGASVKVSCKASGYIFITYWMNWVRQAPGQGLEWIGQIFPASGSTNYNEMFEGRATLTVDTSTSTAYMELSSLRSEDTAVYYCARGDGNYALDAMDYWGQGTLVTVSSASTKGPSVFPLAPCSRSTSESTAALGCLVKDYFPEPVTVSWNSGALTSGVHTFPAVLQSSGLYSLSSVVTVPSSSLGTKTYTCNVDHKPSNTKVDKRV[letters of human IgG4 Fc with S228P (EU numbers) omitted]AGGGGSGGGGSDTGRPFVEMYSEIPEIIHMTEGRELVIPCRVTSPNITVTLKKFPLDTLIPDGKRIIWDSRKGFIISNATYKEIGLLTCEATVNGHLYKTNYLTHRQTN
light: DIVLTQSPASLAVSPGQRATITCRASESVDSYGNSFMHWYQQKPGQPPKLLIYLASNLESGVPARFSGSGSGTDFTLTINPVEADDTANYYCQQNNEDPLTFGGGTKVELKRTVAAPSVFIFPPSDEQLKSGTASVVCLLNNFYPREAKVQWKVDNALQSGNSQESVTEQDSKDSTYSLSSTLTLSKADYEKHKVYACEVTHQGLSSPVTKSFNRGEC
notes: Humanised anti-TGF-β IgG 1D11-Hu with the VEGFR1 D2 domain joined to the C-terminus of the heavy chain; Light chain 3 follows by logic; heavy chain 1 rather than 5 rests on list order only
B2: 抗TGF-β/VEGF双功能融合蛋白TV02 (other)
heavy: DTGRPFVEMYSEIPEIIHMTEGRELVIPCRVTSPNITVTLKKFPLDTLIPDGKRIIWDSRKGFIISNATYKEIGLLTCEATVNGHLYKTNYLTHRQTNTIGGGGSGGGGSGGGGSGGGGSQVQLVQSGAEVKKPGASVKVSCKASGYIFITYWMNWVRQAPGQGLEWIGQIFPASGSTNYNEMFEGRATLTVDTSTSTAYMELSSLRSEDTAVYYCARGDGNYALDAMDYWGQGTLVTVSSASTKGPSVFPLAPCSRSTSESTAALGCLVKDYFPEPVTVSWNSGALTSGVHTFPAVLQSSGLYSLSSVVTVPSSSLGTKTYTCNVDHKPSNTKVDKRV[letters of human IgG4 Fc with S228P (EU numbers) omitted]
light: B1 light
notes: Anti-TGF-β IgG 1D11-Hu with the VEGFR1 D2 domain joined to the N-terminus of the heavy chain
B3: 抗TGF-β/VEGF双功能融合蛋白TV03 (other)
heavy: QVQLVQSGAEVKKPGASVKVSCKASGYTFTSEWMNWVRQAPGQGLEWMGQIFPALGSTNYNEMYEGRVTMTTDTSTSTAYMELRSLRSDDTAVYYCARGIGNYALDAMDYWGQGTLVTVSSASTKGPSVFPLAPCSRSTSESTAALGCLVKDYFPEPVTVSWNSGALTSGVHTFPAVLQSSGLYSLSSVVTVPSSSLGTKTYTCNVDHKPSNTKVDKRV[letters of human IgG4 Fc with S228P (EU numbers) omitted]AGGGGSGGGGSDTGRPFVEMYSEIPEIIHMTEGRELVIPCRVTSPNITVTLKKFPLDTLIPDGKRIIWDSRKGFIISNATYKEIGLLTCEATVNGHLYKTNYLTHRQTN
light: DIQMTQSPSSLSASVGDRVTITCRASESVDFYGNSFMHWYQQKPGKAPKLLIYLASNLESGVPSRFSGSGSGTDFTLTISSLQPEDFATYYCQQNIEDPLTFGGGTKVEIKRTVAAPSVFIFPPSDEQLKSGTASVVCLLNNFYPREAKVQWKVDNALQSGNSQESVTEQDSKDSTYSLSSTLTLSKADYEKHKVYACEVTHQGLSSPVTKSFNRGEC
notes: heavy chain 7 rather than 11 rests on list order
B4: 抗TGF-β/VEGF双功能融合蛋白TV04 (other)
heavy: DTGRPFVEMYSEIPEIIHMTEGRELVIPCRVTSPNITVTLKKFPLDTLIPDGKRIIWDSRKGFIISNATYKEIGLLTCEATVNGHLYKTNYLTHRQTNTIGGGGSGGGGSGGGGSGGGGSQVQLVQSGAEVKKPGASVKVSCKASGYTFTSEWMNWVRQAPGQGLEWMGQIFPALGSTNYNEMYEGRVTMTTDTSTSTAYMELRSLRSDDTAVYYCARGIGNYALDAMDYWGQGTLVTVSSASTKGPSVFPLAPCSRSTSESTAALGCLVKDYFPEPVTVSWNSGALTSGVHTFPAVLQSSGLYSLSSVVTVPSSSLGTKTYTCNVDHKPSNTKVDKRV[letters of human IgG4 Fc with S228P (EU numbers) omitted]
light: B3 light
notes: heavy chain 11 rather than 7 rests on list order
B5: 抗TGF-β/VEGF双功能融合蛋白TV05 (other)
heavy: QVQLVQSGAEVKKPGASVKVSCKASGYTFTSEWMNWVRQAPGQGLEWMGQIFPALGSTNYNEMYEGRVTMTTDTSTSTAYMELRSLRSDDTAVYYCARGIGNYALDAMDYWGQGTLVTVSSASTKGPSVFPLAPCSRSTSESTAALGCLVKDYFPEPVTVSWNSGALTSGVHTFPAVLQSSGLYSLSSVVTVPSSSLGTKTYTCNVDHKPSNTKVDKRV[letters of human IgG4 Fc with S228P (EU numbers) omitted]
light: DIQMTQSPSSLSASVGDRVTITCRASESVDFYGNSFMHWYQQKPGKAPKLLIYLASNLESGVPSRFSGSGSGTDFTLTISSLQPEDFATYYCQQNIEDPLTFGGGTKVEIKRTVAAPSVFIFPPSDEQLKSGTASVVCLLNNFYPREAKVQWKVDNALQSGNSQESVTEQDSKDSTYSLSSTLTLSKADYEKHKVYACEVTHQGLSSPVTKSFNRGECGGGGSGGGGSGGGGSGGGGSDTGRPFVEMYSEIPEIIHMTEGRELVIPCRVTSPNITVTLKKFPLDTLIPDGKRIIWDSRKGFIISNATYKEIGLLTCEATVNGHLYKTNYLTHRQTN

biological target: T2, TGF-β1蛋白 (UniProt P01137 in part); assay: ELISA, TGF-β1 coated at 100 ng/well, HRP goat anti-human Fab detection
T2 construct: Bought protein

EC50 [nM]	Binder
0.188	B1
0.213	B2
0.174	B3
0.221	B4
0.187	B5

biological target: T1, VEGF-A165; assay: ELISA, VEGF coated at 100 ng/well, HRP goat anti-human Fab detection

EC50 [nM]	Binder
0.478	B1
0.394	B2
0.34	B3
0.381	B4
0.393	B5

biological target: T1, VEGF-A165; assay: cell-based or functional assay

阻断VEGF与受体KDR结合的细胞实验 IC50 (luminescence) [nM]	Binder
0.096	B3
0.092	B4

biological target: T2, TGF-β1蛋白; assay: cell-based or functional assay
T2 sequence (P01137 279-390 limits assumed): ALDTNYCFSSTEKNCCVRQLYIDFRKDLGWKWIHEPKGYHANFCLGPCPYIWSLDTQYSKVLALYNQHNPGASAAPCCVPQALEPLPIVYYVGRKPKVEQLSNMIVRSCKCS

SMAD3报告基因抑制实验 IC50 [nM]	Binder
0.388	B1
0.177	B2
0.255	B3
0.221	B4
0.341	B5
